Reference: PubChem BioAssay AID504832 (National Center for Advancing Translational Sciences (NCATS), 2011)
Hit rate of the full screen: of about 310,000 compounds, about 18,000 (5.8%) were called active. The inconclusive results got no clear call from the source; some entries with a clear call stand among them for comparison. The call rests on the fitted dose curve; in most records, active means well fitted inhibition curve with a large enough effect; inconclusive means small, poorly fitted or top-dose-only effect, or another doubt; inactive means no such curve, though single readings can be large or run the other way. Potencies of inconclusive entries are left out as doubtful fits.
Potency means the concentration at half of the fitted maximal effect; tags describe the fitted curve by direction and shape.

Assay: Primary qHTS for delayed death inhibitors of the malarial parasite plastid, 48 hour incubation
Conditions: P. falciparum luciferase growth in erythrocytes; series mostly up to 28.7 µM
In short: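 Compounds are pin-transferred into medium, infected erythrocytes (2% hematocrit, 0.1% parasitemia final) are added, and plates sit one parasite generation at 37 C in 5% CO2. Detection reagent is then added and luminescence measured.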
With `CCCN(CCC)C(=O)c1ccc2c(=O)n(Cc3ccco3)c(=S)[nH]c2c1` the Potency was “inactive”.
In the case of `O=C(c1ccccc1)N1CCN(S(=O)(=O)c2ccccc2)CC1`, the Potency is reported as inconclusive [inhibitor, full curve].
For `O=C(COc1ccc(F)cc1Cl)Nc1cccc(S(=O)(=O)N2CCCCCC2)c1`, the Potency was inconclusive [inhibitor, single point].
With `CCOC(=O)C1CCCN(c2nc3ccccc3nc2NS(=O)(=O)c2ccc(C)cc2)C1` (centres undefined) the Potency was inconclusive [inhibitor, single point].
For `Cc1noc(C)c1S(=O)(=O)N(CC(=O)NCc1ccc(F)cc1)c1ccc(C(C)C)cc1`, the Potency was inconclusive [inhibitor, single point].
With `COc1ccccc1NCC(=O)N/N=C/c1c(O)ccc2ccccc12` the Potency was inconclusive [inhibitor, partial curve].
In the case of `OC(c1ccccc1)(c1ccccc1)c1ncc[nH]1`, the Potency is reported as “inactive”.
For `N#CC1=C(N)C(C#N)(C#N)[C@H](c2ccncc2)[C@H]2CN(C(=O)OCc3ccccc3)CC=C12`, the Potency was active: 10.4 µM.
In the case of `CCn1cc(C(=O)NCc2ccco2)c(=O)c2cc(S(=O)(=O)N3CC(C)CC(C)C3)ccc21` (centres undefined), the Potency is reported as inconclusive [inhibitor, single point].
With `O=C(C1=C[C@@H](c2coc3ccccc3c2=O)C[C@@H](OCc2ccc(CO)cc2)O1)N1CCCCCCC1` the Potency was inconclusive [inhibitor, partial curve].
For `O=C(c1ccco1)c1cn(CC(=O)N2CCCCCC2)c2ccccc12`, the Potency was inconclusive [inhibitor, single point].
In the case of `CC(C)(C)c1nnc(N/N=C/c2ccccc2)n(N)c1=O`, the Potency is reported as “inactive”.
For `COc1ccc(CCNCc2csc3nc4ccccc4n23)cc1OC`, the Potency was inconclusive [inhibitor, partial curve, poor fit].
In the case of `O=C(c1cc2cc(F)ccc2[nH]1)N1CCN(Cc2ccc3c(c2)OCO3)CC1`, the Potency is reported as inconclusive [inhibitor, partial curve].
In the case of `CCN(CC)CCCn1c2c(c(SCC(=O)Nc3ccc(C)c(F)c3)nc1=O)CCC2`, the Potency is reported as inconclusive [inhibitor, single point].
In the case of `Clc1ccc2c(c1)C(OC1CN3CCC1CC3)c1ccccc1CS2` (centres undefined), the Potency is reported as inconclusive [inhibitor, full curve].
For `CN1C(=O)C(Cc2nc3ccccc3c(=O)n2-c2ccccc2)c2ccccc21` (centres undefined), the Potency was inconclusive [inhibitor, partial curve, poor fit].
In the case of `CN(C)c1ccc(/C=N/NC(=O)COc2ccccc2)cc1`, the Potency is reported as “inactive”.
With `CCN(CC)c1ccc(/C=N/NC(=O)C2CC2)cc1` the Potency was inconclusive [inhibitor, partial curve].
In the case of `Cc1cc(N/N=C2/CCCc3ccccc32)nc2ccccc12`, the Potency is reported as inconclusive [inhibitor, single point].
With `COc1cccc(NC(=O)COc2cc(C)cc3oc(=O)cc(C)c23)c1` the Potency was inconclusive [inhibitor, full curve].
In the case of `Cc1ccccc1N(CC(=O)N/N=C/c1ccc(F)cc1)C(=O)c1ccccc1`, the Potency is reported as inconclusive [inhibitor, partial curve, poor fit].
In the case of `Cc1ccc(Sc2ccc(NC(=O)CCl)cc2)c(C)c1`, the Potency is reported as active: 8.28 µM.
With `CC(C)(C)c1ccc(S(=O)(=O)/N=C2\C=C(NS(=O)(=O)c3ccccc3)C(=O)c3ccccc32)cc1` the Potency was “inactive”.
In the case of `COc1ccc(N(CC(=O)NCc2ccc3c(c2)OCO3)C(=O)c2csnn2)cc1`, the Potency is reported as inconclusive [inhibitor, single point].
In the case of `O=c1cc(-c2ccccc2)[nH]c2cc(F)ccc12`, the Potency is reported as inconclusive [inhibitor, single point].
With `C=CCn1c(C)cc(C(=O)CSc2nnc(Cc3ccccc3)o2)c1C` the Potency was “inactive”.
In the case of `Cc1ccc(NC(=O)COC(=O)Cc2c(F)cccc2Cl)cc1S(=O)(=O)N1CCOCC1`, the Potency is reported as inconclusive [inhibitor, partial curve, poor fit].
In the case of `Cc1cc(Cl)c2oc(C(=O)NC3CCC(O)CC3)c(C)c2c1` (centres undefined), the Potency is reported as “inactive”.
For `CC(C)CC(=O)NC(c1cccs1)c1ccc2cccnc2c1O` (centres undefined), the Potency was inconclusive [inhibitor, full curve].
For `N#C/C(=C(/O)CSc1ncn[nH]1)c1nc2ccccc2[nH]1`, the Potency was inconclusive [inhibitor, single point].
With `CCC(C)(C)n1nnnc1C(c1cc2cc(C)cc(C)c2[nH]c1=O)N1CCN(C(=O)c2ccco2)CC1` (centres undefined) the Potency was inconclusive [inhibitor, full curve].
With `O=C1c2ccc(-c3ccc(F)cc3OCc3ccccc3)cc2S(=O)(=O)c2cccc(C(=O)N3CCCC3)c21` the Potency was active: 4.65 µM.
For `CCN(CC)C(=O)c1ccc(Nc2nnc(-c3ccc(O)cc3)c3ccccc23)cc1`, the Potency was inconclusive [inhibitor, single point].
In the case of `CCOC(=O)c1ccc(-c2c(-c3ccc(OC)cc3)oc(=O)c3cc(OC)c(OC)cc23)cc1F`, the Potency is reported as inconclusive [inhibitor, partial curve, poor fit].
For `CCC(CC)C(=O)N1CC(=O)Nc2ccc(F)cc2C1c1ccc(F)cc1` (centres undefined), the Potency was “inactive”.
In the case of `CCOc1cc2c(cc1OCC)-n1cccc1C(c1ccc(OC)c(OC)c1)NC2` (centres undefined), the Potency is reported as inconclusive [inhibitor, single point].
In the case of `COc1ccc(OC)c(S(=O)(=O)N2C(C)CCCC2C)c1` (centres undefined), the Potency is reported as inconclusive [inhibitor, partial curve, poor fit].
With `CCc1ccc2c(CN3CCN(S(=O)(=O)c4ccc5c(c4)OCCO5)CC3)cc(=O)oc2c1` the Potency was active: 9.28 µM.
In the case of `C=CCNc1nc(C)c(CNc2c(C)cc(C)cc2C)nc1C#N`, the Potency is reported as inconclusive [inhibitor, full curve, poor fit].
With `O=C(Nc1ccccc1C(=O)O)c1cccc(NC(=O)c2ccco2)c1` the Potency was inconclusive [inhibitor, single point].
With `CCOc1cc(/C=N/N=C(/N)c2nonc2N)cc(Br)c1OCc1ccc(Cl)cc1` the Potency was inconclusive [inhibitor, single point].
In the case of `CCCCn1c2nc3ccccc3nc2c2c(=O)n(C(C)CC)cnc21` (centres undefined), the Potency is reported as “inactive”.
With `COc1ccc(-c2c(-c3ccc(OCC(=O)NN)cc3O)n[nH]c2C)cc1OC` the Potency was inconclusive [inhibitor, partial curve, poor fit].
With `CN1CCN(c2ccc(NC(=O)c3ccc([N+](=O)[O-])o3)cc2Cl)CC1` the Potency was inconclusive [inhibitor, partial curve].
In the case of `COc1ccc(CCNC(=O)CCSc2nc(-c3ccco3)cc(C(F)(F)F)n2)cc1OC`, the Potency is reported as active: 9.28 µM.
With `CCN(CC)CCCNC(=S)N(Cc1cccnc1)Cc1cc2cc(C)ccc2[nH]c1=O` the Potency was active: 2.33 µM.
In the case of `COC(=O)C(Cc1ccccc1)NC(=O)CCNC(=O)c1ccc(Br)cc1` (centres undefined), the Potency is reported as “inactive”.
For `Clc1ccc(-c2nc3ccccn3c2CN2CCCCC2)cc1`, the Potency was inconclusive [inhibitor, partial curve, poor fit].
In the case of `O=C1CCC(C(=O)N2CCCCO2)CN1CCc1ccccc1` (centres undefined), the Potency is reported as “inactive”.
For `COC(=O)c1ccc(CNC(=O)c2ccc(COc3ccccc3)cc2)cc1`, the Potency was “inactive”.
With `CN1CCN(CCCNC(=O)CCc2nnc3n(Cc4ccccc4Cl)c(=O)c4ccccc4n23)CC1` the Potency was inconclusive [inhibitor, single point].
With `CCOc1ccc(-n2nnc3c(=O)n(C/C=C/c4ccccc4)cnc32)cc1` the Potency was inconclusive [inhibitor, single point].
For `Cc1ccc(NC(=O)CSCC(=O)NCCc2ccccc2)cc1`, the Potency was inconclusive [inhibitor, single point].
In the case of `Cc1cc2c(cc1S(=O)(=O)NCc1ccccc1)NC(=O)CO2`, the Potency is reported as inconclusive [inhibitor, single point].
With `O=C(CN1C(=O)CSC1=O)Nc1ccccc1N1CCOCC1` the Potency was “inactive”.
With `CC(C)n1nc(C(=O)Nc2nc3ccccc3[nH]2)c2ccccc2c1=O` the Potency was “inactive”.
In the case of `CC1(C)C2C/C(=N\O)C(C)(/[N+]([O-])=C/c3cccc([N+](=O)[O-])c3)CC21` (centres undefined), the Potency is reported as “inactive”.
For `C=CCN(CC=C)C(=O)Nc1ccc2nc(C)sc2c1`, the Potency was “inactive”.
With `Cc1ccccc1NC(=O)c1cccc(S(C)(=O)=O)c1` the Potency was “inactive”.
For `O=C(O)/C(=C\c1cccs1)c1ccccc1`, the Potency was “inactive”.
For `CC1CN(C(=O)/C=C/c2ccc([N+](=O)[O-])s2)CC(C)O1` (centres undefined), the Potency was inconclusive [inhibitor, full curve, poor fit].
In the case of `O=C1C=C(O)CC(c2cccs2)C1` (centres undefined), the Potency is reported as “inactive”.
With `Cc1c(C(=O)N/N=C/c2ccc(O)c(Br)c2)sc(N)c1C#N` the Potency was inconclusive [inhibitor, single point].
With `COc1ccc(-c2csc(Nc3ncccc3C)n2)cc1OC` the Potency was “inactive”.
In the case of `COc1cc(SC)ccc1C(=O)N1CCN(S(=O)(=O)/C=C/c2ccccc2)CC1`, the Potency is reported as inconclusive [inhibitor, single point].
In the case of `CCOC(=O)c1c(NC(=O)CSc2ncn[nH]2)sc(C(=O)N(C)C)c1C`, the Potency is reported as inconclusive [inhibitor, partial curve, poor fit].
In the case of `CC1CCCC(C)N1C(=O)c1ccccc1Nc1ccc(SC(F)F)cc1` (centres undefined), the Potency is reported as inconclusive [inhibitor, partial curve, poor fit].
In the case of `COc1ccc(CC(=O)Nc2c(C(=O)N3CCN(c4ccccc4)CC3)oc3ccccc23)cc1OC`, the Potency is reported as inconclusive [inhibitor, partial curve].
